Measured values published in PubChem BioAssay AID485344 (National Center for Advancing Translational Sciences (NCATS), 2010).
About 6,900 (2%) of roughly 340,000 compounds were called active. Cut-off read from the data, not from the text of the source: active = inhibition above about 30%; inactive = below that, where a call was filed. The list shows a part of the results, in another mix than the full data. Where no call is shown, the source filed none.
Note: 0% is about no effect.

These compounds were tested against D(2) dopamine receptor (Homo sapiens) (UniProt P14416) (assay: HTS Assay for Allosteric Antagonists of the Human D2 Dopamine Receptor: Primary Screen for Antagonists). Settings: HEK293 TREx D2 cells, calcium flux, dopamine EC80; at 10 µM; stronger effect = higher value.
Chain of UniProt P14416 (P14416 whole entry, looked up): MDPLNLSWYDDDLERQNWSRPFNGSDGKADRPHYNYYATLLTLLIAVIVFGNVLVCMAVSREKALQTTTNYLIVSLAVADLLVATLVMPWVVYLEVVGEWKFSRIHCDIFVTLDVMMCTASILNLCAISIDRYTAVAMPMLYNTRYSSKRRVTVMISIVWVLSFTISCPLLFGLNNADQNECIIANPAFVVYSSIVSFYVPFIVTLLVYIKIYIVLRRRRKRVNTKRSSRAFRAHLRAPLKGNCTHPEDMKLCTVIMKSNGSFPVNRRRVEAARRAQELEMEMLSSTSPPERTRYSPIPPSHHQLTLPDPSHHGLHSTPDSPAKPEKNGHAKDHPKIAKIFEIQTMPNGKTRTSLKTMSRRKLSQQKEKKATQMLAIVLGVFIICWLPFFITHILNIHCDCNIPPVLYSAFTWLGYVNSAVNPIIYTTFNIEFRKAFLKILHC
Outline: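 Antagonism is scored as inhibition of an EC80 dopamine-evoked calcium signal in a force-coupled, tetracycline-inducible HEK293 T-REx D2 line, with compound present 180 s before agonist.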
In the case of `COc1ccc(-n2nc(C(=O)O)c(=O)n(C)c2=O)cc1`, the inhibition was 16%.
In the case of `CC(=O)c1cccc(NC(=O)Nc2nnc(N3CCCC3)s2)c1`, the inhibition was 7.28%.
`CC(=O)c1cc(-c2ccc(F)cc2)n(CC(=O)NC2CCC(C)CC2)c1C` (stereo not drawn) was tested, and the inhibition was 10.8%.
`CCOC(=O)c1c(C)n(-c2ccccc2)c2ccc(OC(=O)c3cccc(C)c3)cc12` was tested, and the inhibition was 9.69%.
In the case of `COc1cccc(CNC(=O)c2ccc3c(=O)n4nc(Nc5ccccc5)sc4nc3c2)c1`, the inhibition was -16.6%.
For `CCCOc1ccc(CNC(=O)c2ccc(C)c(-n3c(C)nc4cccnc43)c2)cc1`, the inhibition was 6.18%.
Work on `Cc1oc2ncn(C)c(=O)c2c1C(=O)NCCCN1CCCCC1C` (stereo not drawn) yielded an inhibition of 0.493%.
Work on `O=C(Nc1cccc(C(F)(F)F)c1)N1CC2CCCN2c2ccccc21` (stereo not drawn) yielded an inhibition of 4.42%.
For `Cc1cccc(NC(=O)Cn2nc3c4ccccc4n(Cc4ccccc4)cc-3c2=O)c1`, the inhibition was 3.16%.
For `COc1ccc(-n2nc(C(=O)Nc3ccc(Cl)cn3)c3c4ccccc4n(C)c3c2=O)cc1`, the inhibition was -4.25%.
`CCN(CC)C(=O)N1CCN(C)CC1` was tested, and the inhibition was active: 32.5%.
`COc1ccc2cc(-c3nnc(Nc4ccccc4)s3)c(=O)oc2c1` showed an inhibition of 2.15%.
`CCCCN(CCCC)CCNC(=O)CN1C(=O)CSc2ccc(S(=O)(=O)N3CCOCC3)cc21` was tested, and the inhibition was -7.02%.
`COc1ccc(NC(=O)c2c(C)oc3ccc(O)c(CN4CCN(Cc5ccccc5)CC4)c23)cc1Cl` gave an inhibition of 10.3%.
`COc1ccc(C(CNC(=O)c2cccc(Br)c2)N2CCCC2)cc1` (stereo not drawn) was tested, and the inhibition was active: 40.9%.
`COc1ccc(-c2cc3nc(C)c(CCC(=O)N4CCN(c5ccc(F)cc5)CC4)c(C)n3n2)c(OC)c1` gave an inhibition of 9.32%.
For `Cc1ccc(Nc2nc3ccccc3c3nnc(C)n23)c(C)c1`, the inhibition was -3.06%.
`CC(C)c1nnc(NC(=O)C2CCCN2C(=O)Nc2ccccc2F)s1` (stereo not drawn) was tested, and the inhibition was active: 38%.
In the case of `CCOC(=O)CN(Cc1ccccc1)C(C(=O)NC1CCCCC1)c1ccc(OC)cc1` (stereo not drawn), the inhibition was 16.3%.
Compound `CC(=O)c1cccc(NC(=O)C(CC(C)C)NS(=O)(=O)c2ccc3c(c2)CCN3C(C)=O)c1` (stereo not drawn) has an inhibition of -16.7%.
In the case of `COc1ccc(Cl)cc1NC(=O)c1ccc2c(c1)CCN2S(C)(=O)=O`, the inhibition was 23.6%.
With `CCOc1cc(C(=O)Nc2cccc3cccnc23)cc(OCC)c1OCC` the inhibition was -3.72%.
`Cc1cc(NC(=O)CSc2nc(-c3ccccc3C)nc3c2c(=O)n(C)c(=O)n3C)no1` gave an inhibition of 11.1%.
`COc1cccc(Nc2sc(C(=O)c3ccc(Cl)cc3)c(N)c2C(=O)NCc2ccc(C)cc2)c1` gave an inhibition of -26%.
Work on `O=C(NCCc1ccccc1)c1ccc2c(c1)N(Cc1ccccc1)C(=O)c1ccccc1S2(=O)=O` yielded an inhibition of 10.5%.
Work on `COc1ccc(CNC(=O)c2cc(=O)[nH]c3ccc(S(=O)(=O)N4CCCC4)cc23)c(OC)c1` yielded an inhibition of -2.28%.
For `NS(=O)(=O)c1ccc(CCNc2ncnc3c2cnn3-c2cccc(Cl)c2)cc1`, the inhibition was 5.78%.
In the case of `COc1ccc(CCC(=O)NCc2nc3cccnc3n2Cc2ccc(F)cc2)cc1`, the inhibition was -10.4%.
For `CN(CC(=O)Nc1ccccc1F)S(=O)(=O)c1ccc2c(c1)c(=O)n(C)c(=O)n2C`, the inhibition was -4.36%.
In the case of `CC1CCN(S(=O)(=O)c2ccc3c(c2)c(=O)c(C(=O)NC(C)c2ccccc2)cn3C)CC1` (stereo not drawn), the inhibition was -3.24%.
`Cc1ccc(-c2nnc(Nc3cccc(O)c3)c3ccccc23)cc1S(=O)(=O)NCC1CCCO1` (stereo not drawn) showed an inhibition of -2.32%.
In the case of `Cc1ccc(Cl)cc1N1CCN(C(=O)c2ccc3c(c2)CCN3S(=O)(=O)c2ccccc2)CC1`, the inhibition was 1.62%.
Compound `Cc1c(Cl)cccc1NC(=O)C1CCCN(c2ncnc3onc(C)c23)C1` (stereo not drawn) has an inhibition of -1.25%.
In the case of `CCCCOc1ccc(NC2=NC3(CCCCC3)N=C(N)N2)cc1`, the inhibition was active: 35.5%.
For `Cc1oc2ccc(O)c(CN3CCCC3)c2c1C(=O)Nc1ccc(C(C)C)cc1`, the inhibition was 8.71%.
Work on `C#CCOc1ccc(-c2nnc(Nc3ccc(NC(C)=O)cc3)c3ccccc23)cc1` yielded an inhibition of -8%.
In the case of `CCc1cc2ccc(OC)cc2nc1SCC(=O)NNC(C)=O`, the inhibition was active: 57.4%.
In the case of `Cc1ccc(Cl)cc1N1CCN(C(=O)c2c(C)oc3ncnc(N4CCCCC4)c23)CC1`, the inhibition was 7.6%.
For `CCCCOc1cccc(C(=O)Nc2cc(NC(=O)c3ccco3)ccc2OC)c1`, the inhibition was -1.5%.
In the case of `CCc1ccc(CN2CCc3nc(N4CCN(c5ccccc5F)CC4)ncc3C2)cc1`, the inhibition was 8.4%.
`CCc1cc(C(=O)Nc2sc(C)c(CC)c2C#N)no1` was tested, and the inhibition was 0.83%.
`CC(c1ccccc1)n1cc2c(c1-c1ccccc1Br)c(=O)n(C)c(=O)n2C` (stereo not drawn) showed an inhibition of 11.7%.
`COc1ccc(-c2cnc(C)o2)cc1S(=O)(=O)Nc1c(C)cc(C)cc1C` was tested, and the inhibition was -7.95%.
In the case of `CCc1ccc(C2=C(C)C(N3CCC(C(=O)NCc4ccccc4)CC3)=NS2(=O)=O)cc1`, the inhibition was 7.23%.
`Cc1ccc2c(c1)-c1c(cnc3cc(-c4ccc(F)cc4)nn13)CO2` showed an inhibition of 4.38%.
Work on `Cc1ccc(CNC(=O)c2c(O)nc3cc(C)ccn3c2=O)cc1` yielded an inhibition of 17.4%.
With `COc1cccc(NC(=O)CCc2c(C)nc3nc(CNC(=O)c4cccc(F)c4)nn3c2C)c1` the inhibition was -5.27%.
For `CC(=O)c1ccc(NC(=O)c2noc3c2CSc2ccccc2-3)cc1`, the inhibition was 16.7%.
